According to PubChem BioAssay AID596 (National Center for Advancing Translational Sciences (NCATS), 2007):
Screen size: about 71,000 compounds; about 1,400 (2%) were called active. Not shown: some 3% with an inconclusive outcome. The call rests on the fitted dose curve; in most records, active means well fitted curve in the direction sought with a large enough effect; inconclusive means small, poorly fitted or top-dose-only effect; inactive means no such curve, though single readings can be large or run the other way. Some compounds were tested as several samples or in several runs, with calls that do not always agree. Not every entry of the source has a single result; some have several. Only these are listed. There may be further records. Values that stand side by side are repeated measurements (runs, samples, wells, individuals or studies). Additions like (4×) give the number of equal values in this list.

What follows are molecules tested against Microtubule-associated protein tau (Homo sapiens) (UniProt P10636) (assay: qHTS Assay for Tau Filament Binding). Conditions: recombinant tau filaments, thioflavin S fluorescence, 15 h, filaments grown with octadecylsulfate alongside compound; series mostly up to 57.1 µM.
Source text: NIH Molecular Libraries Screening Centers Network [MLSCN]
NIH Chemical Genomics Center [NCGC]
Assay Provider: Jeffrey A. Kuret, Ohio State University
Tau monomers form filaments in vitro in the presence of anionic detergents or fatty acids. The dye Thioflavine S (ThS) binds to tau filaments and upon binding, increases in fluorescence several fold. Small molecules that displace ThS binding or prevent filament binding are identified by a reduction in ThS fluorescence. This assay used histidine-tagged, recombinant human tau protein containing the products of exons 2, 3, and 10 that was provided by Jeff Kuret, Ohio State University. To form filaments, 1 uM tau was incubated with 30 uM sodium octadecylsulfate (ODS) in reagent buffer (10 uM thioflavine S, 5 mM 1,4-dithioerythreitol (DTT), 100 mM sodium chloride, 10 mM HEPES pH 7.4) for 15 hrs at 37 C.
NCGC Assay Protocol Summary:
Assay Steps. Two uL/well of 2 uM tau in reagent buffer (10 uM thioflavine S, 5 mM DTT, 100 mM sodium chloride, 10 mM HEPES pH 7.4) was dispensed into solid black 1536-well plates. Twenty-three nL compound was transferred to the assay plate after which 2 uL/well of 60 uM ODS in reagent buffer was dispensed for a final assay volume of 4 uL /well. Following 15 hours of incubation at 37 C, fluorescence was detected by an Envision (Perkin Elmer) using 450/8 nm excitation and 510/23 nm emission. […]
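Further: actives lower thioflavin S fluorescence by blocking filaments or displacing dye.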
On the % scale 0 is the no-effect control and ±100 the full control effect; potency means the concentration at half of the fitted maximal effect.

Chain of UniProt P10636 (P10636 whole entry, looked up): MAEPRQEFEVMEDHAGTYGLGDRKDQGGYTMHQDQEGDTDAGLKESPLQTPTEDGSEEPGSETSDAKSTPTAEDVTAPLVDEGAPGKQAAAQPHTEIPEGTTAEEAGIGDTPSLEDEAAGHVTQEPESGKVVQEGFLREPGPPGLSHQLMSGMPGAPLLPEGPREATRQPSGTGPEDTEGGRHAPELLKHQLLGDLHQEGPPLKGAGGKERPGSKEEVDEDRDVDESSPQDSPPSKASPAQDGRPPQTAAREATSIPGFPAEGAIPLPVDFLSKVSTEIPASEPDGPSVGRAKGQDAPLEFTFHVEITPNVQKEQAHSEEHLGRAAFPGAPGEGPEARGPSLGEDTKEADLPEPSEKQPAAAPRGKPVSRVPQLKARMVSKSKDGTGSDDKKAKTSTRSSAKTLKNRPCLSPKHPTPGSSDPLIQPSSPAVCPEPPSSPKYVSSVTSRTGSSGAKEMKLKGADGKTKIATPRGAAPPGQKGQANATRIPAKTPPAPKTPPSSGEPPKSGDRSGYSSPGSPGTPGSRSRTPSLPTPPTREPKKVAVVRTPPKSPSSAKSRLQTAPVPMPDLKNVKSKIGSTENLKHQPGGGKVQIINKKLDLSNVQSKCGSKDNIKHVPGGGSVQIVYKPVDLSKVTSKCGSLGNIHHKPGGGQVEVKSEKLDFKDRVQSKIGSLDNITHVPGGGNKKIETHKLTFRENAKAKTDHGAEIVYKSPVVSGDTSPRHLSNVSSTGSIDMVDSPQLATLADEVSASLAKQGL

Structure (SMILES)	Potency
CNCC[C@H](Oc1ccc(C(F)(F)F)cc1)c1ccccc1	inactive (3×) and active: 10 µM [separate samples]
